The whole screen tested about 52,000 compounds, of which about 4,300 (8.3%) were called active. Cut-off read from the data, not from the text of the source: active = survival mostly below about 52% (no sharp cut-off); inactive = mostly above about 56%. Some of the results follow.

The source of these data is PubChem BioAssay AID463173 (ICCB-Longwood Screening Facility, Harvard Medical School, 2010).

The test system of the test is DeltatarO mutant. Put plainly: S. aureus survival, RN4220 and DeltatarO strains – OD600, teichoic acid synthesis inhibitors, primary screen (AID 463173). Conditions: S. aureus RN4220 wild type/DeltatarO growth, OD600, 18 h, active compounds read low, screened at 18.75 µg/mL (by protocol).
With `COCc1cc(C)nc2sc3c(c12)NC(c1ccccc1C(=O)O)N(c1ccc(OC)cc1)C3=O` (centres undefined), the survival is inactive: 89%. Regarding `CC(=O)c1ccc(NC(=O)COc2ccccc2-c2nc(-c3ccccc3)no2)cc1`, the survival is inactive: 48%. On to `Cc1ccc(C)c(NC(=O)c2nnn(CC(=O)Nc3cccc(C)c3C)c2N)c1`, for which the survival is inactive: 98%. Regarding `O=c1c2c3c(sc2n(Cc2cc(=O)n4ccccc4n2)c(=O)n1-c1ccccc1)CCC3`, the survival is inactive: 87%.

In the case of `O=c1cc(CN2CCN(S(=O)(=O)c3ccccc3)CC2)nc2sc(-c3ccccc3Cl)nn12`, the survival was inactive: 72%. As to `COc1ccc(NC(=O)CCCc2nnc3n(CCC(C)C)c(=O)c4sccc4n23)cc1Cl`, the survival was inactive: 80%.

As for `CCOc1ccc(CNC(=O)C2CCN(C(=O)c3sccc3-n3cccc3)CC2)cc1`, the survival is inactive: 81%.

In the case of `Cc1ccc(-n2c(SCCC(C)C)nc3sc4c(c3c2=O)CC(C)(C)OC4)cc1`, the survival was inactive: 49%.

Take `COc1ccccc1CNC(=O)CN1C(=O)c2cccnc2Oc2ccccc21`: the survival was inactive: 89%. For the compound `CCC(=O)N(Cc1cc2ccc(C)cc2n2nnnc12)C1CCCCC1`, the survival was inactive: 75%. For `O=C(CSc1nc(-c2ccccc2)nc2c1CCCC2)c1ccc(Cl)cc1`, the survival is inactive: 76%. On to `O=C(O)CCc1ccc(-c2cccs2)n1CC(=O)Nc1ccccc1C(F)(F)F`, for which the survival is inactive: 109%.

With `COc1ccc(Cn2ccc3nc(C)c(C(=O)N4CCN(c5cc(C)ccc5C)CC4)cc3c2=O)cc1`, the survival was inactive: 94%. Take `CCOC(=O)c1c(NC(=O)CSc2nccn2C)sc2c1CCCC2`: the survival is inactive: 78%. As for `CCc1cccc(C)c1NC(=O)C(CC)n1ncn2c(cc3cc(C)ccc32)c1=O` (centres undefined), the survival is inactive: 86%. Regarding `Cc1ccc(C)c(NC(=O)Cn2c(=O)n(Cc3ccc4c(c3)OCO4)c(=O)c3ccc(C(=O)NC4CCCCC4)cc32)c1`, the survival was inactive: 88%. `CCOc1ccc(CNC(=O)c2cnc3sc(N4CCCCCC4)nn3c2=O)cc1OC`: the survival is inactive: 83%. Turning to `Cc1ccc(S(=O)(=O)c2nc(S(=O)(=O)c3ccc(C)cc3)c(NC(C)C)s2)cc1`, the survival was inactive: 74%. For `CC1CCCCN1C(=O)C1CCCN(S(=O)(=O)c2ccccc2)C1` (centres undefined), the survival was inactive: 71%. For `CCC(=O)Nc1cc(C(F)(F)F)ccc1N1CCCC1` the value was inactive: 76%. The result for `CCOc1ccc(CNC(=O)CN2C(=O)C3CCCCN3c3ccc(C(=O)N4CCCC4)cc32)cc1` (centres undefined) reads inactive: 113%; that for `CC(C)Oc1ccc(C(=O)N2CC(=O)Nc3ccc(F)cc3C2c2ccc(F)cc2)cc1` (centres undefined), inactive: 53%; that for `CN(C)c1cccc(C(=O)N2CCC(c3ccncc3)CC2)c1`, inactive: 88%.

As to `COc1cc(CNc2ccc3[nH]c(=O)[nH]c3c2)cc(Br)c1OCc1ccc(F)cc1`, the survival was inactive: 99%.

With `COc1ccccc1CNC(=O)c1cc2cc(C)ccc2n1C`, the survival was inactive: 80%. The result for `O=C(Cn1c(C(=O)OCCO)cc2ccccc21)c1ccccc1` reads inactive: 99%. On to `O=C(COc1ccccc1)NCC1COc2ccccc2O1` (centres undefined), for which the survival is inactive: 91%. Take `COCCNc1ncnc2onc(-c3ccc(F)cc3)c12`: the survival was inactive: 94%. The result for `COc1ccc(-c2cc(C(F)(F)F)nc(SCCC(=O)Nc3cccc(O)c3)n2)cc1` reads inactive: 66%; that for `Cc1cc(=O)n(CC(=O)Nc2cccc([N+](=O)[O-])c2)c(-n2nc(C)cc2C)n1`, inactive: 95%.

Take `CC(NC(=O)c1ccc2nc(Cc3ccccc3)oc2c1)c1ccccc1` (centres undefined): the survival was inactive: 75%. For `COC(=O)c1c(NC(=O)c2cc3nc(-c4ccc(Br)cc4)cc(C(F)(F)F)n3n2)sc2c1CCCC2`, the survival was inactive: 70%. `COc1ccc(OC)c(NC(=O)N2CCC(N3CCN(Cc4ccc(F)cc4)C(=O)C3=O)CC2)c1`: the survival was inactive: 90%. For `CCc1ccc(Nc2cc(C(=O)NCCCN(C)c3ccccc3)c3ccccc3n2)cc1` the value was inactive: 75%; for `CCOc1ccc(CCNC(=O)c2sc3ncccc3c2-n2c(C)ccc2C)cc1`, inactive: 106%. Turning to `CCc1noc(-c2ccc(N(C)Cc3ccc(OC)cc3)c([N+](=O)[O-])c2)n1`, the survival is inactive: 75%. Regarding `CCNC(=O)C1CCN(S(=O)(=O)c2ccc(C)cc2)CC1`, the survival was inactive: 99%. `Cc1c(Cl)cccc1NC(=O)C(=O)NCC(c1cccnc1)N1CCN(c2ccccc2)CC1` (centres undefined): the survival was inactive: 53%. With `O=C(c1ccco1)c1cn(CC(=O)N2CCc3ccccc3C2)c2ccccc12`, the survival is inactive: 98%. With `Cc1ccc2c(c1)CC(C)N2S(=O)(=O)c1nnc(NC(=O)C(C)C)s1` (centres undefined), the survival is inactive: 58%. For the compound `CCCN(C(=O)c1sc2nc3n(c(=O)c2c1C)CCCC3)c1ccccc1C`, the survival was inactive: 70%.

On to `CCCNC(=O)C1CCC(Cn2c(=O)c3sccc3n(CC(=O)Nc3ccccc3C)c2=O)CC1` (centres undefined), for which the survival is inactive: 93%. In the case of `Cc1cccc(NC(=O)C2CCN(S(=O)(=O)c3ccc4c(c3)CCCC(=O)N4)CC2)c1`, the survival is inactive: 85%. For the compound `Fc1ccc(Cc2cn3cc(-c4ccc(F)cc4)nc3s2)cc1`, the survival was inactive: 61%. Take `COc1cc(NC(=O)c2cc3cc4cc(OC)ccc4nc3o2)cc(OC)c1`: the survival is inactive: 83%. For `Cc1ccc2[nH]c(=O)c(C(c3nnnn3C3CCCC3)N(C)C3CCCCC3)cc2c1` (centres undefined) the value was inactive: 94%; for `CCOc1cc(C2NC(=O)c3c(sc4c3CCN(C)C4)N2)ccc1OC(=O)c1ccc(F)cc1` (centres undefined), inactive: 56%. Take `CC1CCN(S(=O)(=O)N(C)C)CC1`: the survival was inactive: 86%.

`Cc1nc2nc(C)c(CCC(=O)NCc3cccc(Cl)c3)c(C)n2n1`: the survival was inactive: 84%. For the compound `O=C(Cn1c(=O)n(Cc2ccco2)c(=O)c2sc3ccccc3c21)Nc1ccccc1C(F)(F)F`, the survival is inactive: 78%.

For the compound `Cc1ccc(-n2nc(C)c3c(C)c(CCC(=O)NCc4ccccc4Cl)c(C)nc32)cc1`, the survival is inactive: 62%. Regarding `CC(=O)NCCNC(=O)c1ccc2c(=O)n(CCc3ccccc3)c(=O)[nH]c2c1`, the survival was inactive: 83%. The result for `COc1ccc(C2=C(C(C)=O)Sc3nnc(-c4ccccc4)n3N2C(C)=O)cc1` reads inactive: 87%; that for `CC1(C)CC2CC(C)(CN2C(=O)Nc2ccccc2)C1` (centres undefined), inactive: 75%; that for `Cc1ccc(Cl)cc1N1CCN(C(=O)c2cn(C)c3ccc(S(=O)(=O)N4CCCCC4)cc3c2=O)CC1`, inactive: 68%. As for `CC(C)CNc1cc(NC2CCCCC2)c2c3c(onc13)-c1ccccc1C2=O`, the survival was inactive: 80%. With `CSc1ccc(CCNC(=O)CCc2c(C)nc3c4cccnc4nn3c2C)cc1`, the survival is inactive: 81%. For `CC(C(=O)O)N1CCCCC1` (centres undefined), the survival is inactive: 79%.

Regarding `O=C(CC1N=C2c3ccccc3N=C(SCc3cccc(F)c3)N2C1=O)NC1CCCCC1` (centres undefined), the survival was inactive: 93%. As for `CCSc1nc2sc3c(c2c(=O)n1-c1ccc(C)cc1)CCCC3`, the survival was active: 0%. `O=C(NC1CCCCC1)C(c1cccs1)N(Cc1ccco1)C(=O)C1COc2ccccc2O1` (centres undefined): the survival was inactive: 96%. For `COc1cccc(CNCc2c(C(=O)O)c(C)n(Cc3ccc(F)cc3Cl)c2C)c1OC` the value was inactive: 72%; for `O=C(Nc1ccc(F)c(F)c1)c1ccc(F)c(S(=O)(=O)N2CCC3(CC2)OCCO3)c1`, inactive: 67%; for `COc1cc(C2CC(=O)N(CC(=O)Nc3ccccc3F)c3ccccc3S2)cc(OC)c1OC` (centres undefined), inactive: 74%.

As to `CCC(C(=O)NCCc1ccc(SC)cc1)n1nc(C)c2c(C)n(-c3ccc(C)cc3)nc2c1=O` (centres undefined), the survival was inactive: 80%. Consider `Cc1ccc(CCNC(=O)c2ccc(CSc3nc4ccncc4n3Cc3ccc(F)cc3)cc2)cc1`, for which the survival is inactive: 104%.

Regarding `COC(=O)c1sc2ccccc2c1S(=O)(=O)N1CCN(c2ccc(C(C)=O)cc2)CC1`, the survival is inactive: 94%. With `Cc1ccc(-n2nc(CO)c(C(=O)NC(C)c3ccccc3)n2)cc1C` (centres undefined), the survival is active: 41%.

With `O=C(Nc1ccc(F)cc1F)c1cc(-c2ccc3c(c2)OCO3)on1`, the survival is inactive: 71%. For `COC(=O)c1ccccc1NC(=O)CCc1c(C)nc2cc(-c3ccc(Cl)cc3)nn2c1C`, the survival is active: 41%. Take `CC(=O)c1cc(-c2ccc(F)cc2)n(CCC(=O)NC2CCCCC2)c1C`: the survival is inactive: 99%. Take `Cc1cccc(OCC(=O)Nc2cccc(-c3nc4ccccc4s3)c2)c1`: the survival is active: 7%. In the case of `CCOC(=O)c1cc(CC)sc1NC(=O)COc1ccccc1C`, the survival is inactive: 127%. For the compound `Cc1cc(NC(=O)CN2CCC(O)CC2)nc2c1c(=O)oc1ccccc12`, the survival is inactive: 83%. `COc1ccc(C(=O)NCC(c2ccc3c(c2)OCO3)N2CCN(C)CC2)cc1OC` (centres undefined): the survival was inactive: 120%. The result for `CCN1CCN(c2ncnc3c2cnn3-c2ccc(F)cc2)CC1` reads inactive: 84%; that for `CCn1c(=O)n(CC2CCC(C(=O)NC(C)C)CC2)c(=O)c2sccc21` (centres undefined), inactive: 85%; that for `COc1ccc(NC(=O)CSc2c(C(C)C)cnc3c2c(=O)n(C)c(=O)n3C)c(OC)c1`, inactive: 67%. The result for `COc1ccc2cc3c(N)nn(C(=O)c4ccc(F)cc4Cl)c3nc2c1` reads inactive: 66%; that for `COC(=O)c1ccc(CSc2nc3ccncc3n2Cc2ccc(F)cc2)cc1`, inactive: 93%. Regarding `COc1ccc(C(=O)Oc2ccc(C3NC(=O)c4c(sc5c4CCN(C)C5)N3)cc2OC)cc1` (centres undefined), the survival was inactive: 70%. Turning to `Cc1ccc(Cl)cc1N1CCN(C(=O)c2cc(S(=O)(=O)N3CCCCC3)cn2C)CC1`, the survival is inactive: 83%. Regarding `CC1=CC(C)(C)N(CC(=O)c2ccccc2)c2ccc(C)cc21`, the survival was inactive: 97%. For `COCC(C)Nc1ncnc2c1cnn2-c1cccc(Cl)c1` (centres undefined) the value was inactive: 102%. Turning to `COc1ccc(CC(=O)Nc2ccc(-c3nc4ccccc4s3)c(C)c2)cc1`, the survival is inactive: 69%. As to `CC(C)c1nc2sc3c(N4CCCCC4)ncnc3c2c2c1CCCC2`, the survival is inactive: 91%.

`COc1ccc(NC(=O)c2ccc3oc(=O)c(S(=O)(=O)c4ccc(F)cc4)cc3c2)c(OC)c1`: the survival was inactive: 87%. Regarding `O=C(Nc1ccc(Cl)cc1)C1COc2ccccc2O1` (centres undefined), the survival was inactive: 69%. The result for `CCOc1ccc(-n2c(SCC(=O)c3ccccc3)nc3c([nH]c4ccccc43)c2=O)cc1` reads inactive: 131%.
